About 120 (0.035%) of roughly 340,000 compounds were called active. The shares of active, inactive and inconclusive entries below differ from those in the screen.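 How the source made its calls: active means mean replicate inhibition at least 50% and at least half of replicates individually reaching 50%; inconclusive means only one of the two criteria met; inactive means neither criterion met.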
Experiment: E. coli Tat export inhibitors, primary screen, MC4100, TorA-mCherry reporter, fluorescence, single point (AID 488895);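 further: exported cargo escapes ClpAP degradation while cytoplasmic cargo is degraded and loses fluorescence; 0% = median of neutral control wells and 100% = median of NaSCN control wells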
Conditions: at 10 µM, stronger effect = higher value

Compound	inhibition
CCC[C@@H](CN1CCC[C@H]1CN1C(N)=NC[C@H]1CC(C)C)N1C[C@@H]([C@H](C)CC)N(CCCC2CCCC2)C1=N	inactive: -0.655%
O=CN1CCN(C(=O)c2cc3cc(Cl)ccc3[nH]2)CC1	inconclusive: 25.1%
Cc1cc(NC(=O)C2CC2)ccc1NC(=O)c1cccs1	inconclusive: 24.6%
CC1=CC(C)(C)N2C(=O)C3(C(C#N)=C(N)OC4=C3C(=O)CCC4)c3c(C)c(C)cc1c32 (configuration not stated)	inconclusive: 22.3%
CCc1nc2ccccc2c(C(=O)OC2CCOC2=O)c1C (configuration not stated)	inconclusive: 30.6%
O=C(CSc1nnc(-c2ccncc2)s1)Nc1ccc(Cl)c(C(=O)O)c1	inconclusive: 25.6%
CCN(CC)S(=O)(=O)c1cccc(C(=O)N/N=C/c2ccc(O)c(O)c2O)c1	inactive: 5.23%
Cc1cc(C)c(S(=O)(=O)/N=C2/C=C(Sc3ncn[nH]3)C(=O)c3ccccc32)cc1C	inactive: -9.12%
CCC(=NCCc1ccc(OC)c(OC)c1)C1=C(O)CC(C)(C)CC1=O	inconclusive: 28.5%
Cc1c(N2C(=O)c3cccc4cccc(c34)C2=O)c(=O)n(-c2ccccc2)n1C	inconclusive: 32.9%
C[C@@H]1CN([C@H](C)CO)C(=O)c2cc(NS(=O)(=O)c3cccs3)ccc2O[C@H]1CN(C)Cc1ccccc1	inconclusive: 43.6%
COc1ccc(-c2cc(C)no2)cc1S(=O)(=O)NCCCN1CCCCCC1	inconclusive: 32.1%
Cn1cc(S(=O)(=O)N2CCc3ccccc32)cc1C(=O)NC1CCCCC1	inactive: 1.08%
O=C(O)c1ccc(NS(=O)(=O)c2cc(C(=O)O)ccc2Br)cc1	inconclusive: 39.5%
CC(=O)N1c2ccc(S(=O)(=O)N3CCC(C(=O)N4CCN(c5ccccc5F)CC4)CC3)cc2CC1C (configuration not stated)	inconclusive: 30.4%
CCOC(=O)c1sc(C)c2c1NC(C)(c1ccccc1)NC2=O (configuration not stated)	inconclusive: 29.8%
CCCCCCCCCCCCN1[C@@H](CC(=O)O)c2cc(C(F)(F)F)ccc2S1(=O)=O	active: 51.8%
O=C(Nc1ccc(Cl)c(C(F)(F)F)c1)NC1CC2CCCC(C1)N2C1CC1 (configuration not stated)	inconclusive: 31.2%
CC1(C)CC(=O)C(N=Nc2c(F)cccc2F)=C(O)C1	inactive: -8.43%
CC(C)(C)c1cc(NS(=O)(=O)c2ccc3c(c2)OCCO3)on1	inconclusive: 36.3%
COc1ccc(N=C2SC(C(=O)O)CC(=O)N2Cc2ccc(OC)c(OC)c2)cc1 (configuration not stated)	inconclusive: 32.8%
C=CCNC(=S)N/N=C(\C)c1ccccn1	inactive: -4.88%

Compound	inhibition
CC(Oc1ccc2c(-c3ccccc3)cc(=O)oc2c1)C(=O)NCCCN1CCOCC1 (configuration not stated)	inconclusive: 29.5%
O=c1/c(=C/c2ccc(O)c([N+](=O)[O-])c2)sc2nc3ccccc3n12	inconclusive: 32.1%
O=C1CCC(c2ccccc2)=NN1	inactive: -5.11%
CCCc1cc(=O)oc2cc(OCC(=O)N(C)C)c(Cl)cc12	inconclusive: 44.2%
Cc1cc(N2C(=O)c3ccc(C(=O)Nc4ccc(O)cc4C(=O)O)cc3C2=O)no1	inconclusive: 29.7%
Clc1ncccc1OCc1ccccc1	inactive: 1.32%
O=C(NCc1ccccc1)c1nc[nH]c1C(=O)N1CCN(c2ccccc2)CC1	inconclusive: 33.9%
CCOc1ccccc1NC(=O)NCc1ccc2c(c1)OCO2	inconclusive: 44%
Cc1ccc2cccc(OCC(=O)N3CCc4ccccc43)c2n1	inconclusive: 27.3%
COc1ccc(CCN=C(N)NS(=O)(=O)c2cccs2)cc1	inconclusive: 30.6%
CCCCOc1ccc(NC(=O)c2cc(F)c(F)cc2Cl)cc1	inconclusive: 28.8%
COc1ccc(-[n+]2c(C)cc(/C=C3\Sc4ccccc4N3C)cc2C)cc1	active: 67.4%
CCOc1ccc(Cc2onc3c2C(=O)CCC3)cc1OCC	inactive: 5.98%
CNc1cccnc1C=NNC(N)=S	inactive: -10%
COc1ccc(CC(=O)Nc2cc(C)ccc2O)cc1OC	inactive: 4.5%
O=C(c1ccc(-n2cncn2)c([N+](=O)[O-])c1)N1CCN(S(=O)(=O)c2ccc(Br)cc2)CC1	inconclusive: 30.8%
Cc1ccc(OCCOCCNC(C)(C)C)c([N+](=O)[O-])c1	inconclusive: 32.1%
CC(Sc1ccsc1[N+](=O)[O-])C(=O)N1CCN(c2ccccn2)CC1 (configuration not stated)	inconclusive: 29.7%
COc1ccc(-c2ccc(-c3noc(-c4ccccc4OC)n3)c(OC)n2)cc1	active: 52.6%
CCC(=O)NC(c1ccc(OC)cc1)c1cc(Cl)c2cccnc2c1O (configuration not stated)	inactive: 0.0438%
COc1ccccc1NC(=O)NCCCCc1ccccc1	inconclusive: 29.2%
S=C(NCCCn1ccnc1)Nc1cccc(Cl)c1	inconclusive: 29.3%

Compound	inhibition
Cc1cc(C(=O)N(C2CCCCC2)C2CCCCC2)no1	inactive: -0.021%
O=C(O)c1ccc(NC2=C(N3CCOCC3)C(=O)c3ccccc3C2=O)cc1	inconclusive: 32.5%
COCc1cc(CNC(=O)C2CCC(=O)N(Cc3ccccc3OC)C2)[nH]n1 (configuration not stated)	inconclusive: 27.5%
CCCCn1c(CNC(=O)Cc2ccccc2)nc2ccccc21	inactive: -2.58%
CCCCOc1ccc(C2CC(=O)N(C)C2=O)cc1 (configuration not stated)	inconclusive: 33.5%
O=C(Cn1nc(C(F)(F)F)c2c1CCCC2)NCc1ccco1	inconclusive: 26.6%
COc1ccccc1N1C(=NC(=O)CCc2ccccc2)SC2CS(=O)(=O)CC21 (configuration not stated)	inconclusive: 24.1%
COC(=O)c1cccc(NC(=S)NCc2ccc(Cl)cc2)c1	inactive: -0.781%
COc1ccccc1N1CCN(C(=O)CSc2nnc(NC(=O)C(C)C)s2)CC1	inconclusive: 38.8%
Cc1cccc(-c2onc3ccc(C4(C)OCCO4)cc23)c1	inconclusive: 47%
COc1ccc(S(=O)(=O)N2CCCC2)c(Cl)c1Cl	inconclusive: 35.9%
CC[n+]1c(/C=C/c2c[nH]c3ccccc23)ccc2cc(C)ccc21	inactive: -1.96%
CCn1c(C)cc(/C=C2/NC(=O)N(Cc3ccccc3F)C2=O)c1C	inconclusive: 33.7%
O=C(NC(=S)N1CCc2ccccc21)c1ccccc1Cl	inconclusive: 23.7%
CN1CCc2c(sc3nc(SCC(=O)N4CCOCC4)nc(N)c23)C1	inconclusive: 18.7%
S=c1nc(-c2ccccc2Br)[nH][nH]1	inconclusive: 27.9%
CCCCNC(=O)CCCn1c(=O)[nH]c2ccc(Br)cc2c1=O	inconclusive: 22.5%
O=C(c1ccc2nc[nH]c2c1)N1CCN(c2ncc(C(F)(F)F)cc2Cl)CC1	inconclusive: 37.8%
O=[N+]([O-])c1ccc(/C=N/NS(=O)(=O)c2ccc(Cl)cc2)o1	inactive: 4.95%
CCNC(=O)OCC12CC3CC(CC(C3)C1)C2	inconclusive: 38.4%
CCCN=C1N(CC)C[C@@H]2[C@@H]3C(=O)N(C)C(=O)[C@@H]3[C@](Cc3ccccc3)(C(=O)OC)N12	inconclusive: 20.9%
Cc1ccc(-c2c(C(=O)N/N=C/c3ccc(OC(C)C)cc3)nnn2-c2nonc2N)cc1	inconclusive: 42%

Compound	inhibition
COCc1cc(C)n(CC(=O)NC(C)c2ccccc2)c(=O)c1C#N (configuration not stated)	inconclusive: 28.4%
Cc1cc(C(=O)N/N=C/c2ccc([N+](=O)[O-])o2)c(C)o1	inactive: -12.4%
COc1cc2cc(C(c3nnnn3Cc3ccc(F)cc3)N3CCCCCC3)c(=O)[nH]c2cc1OC (configuration not stated)	inconclusive: 33.5%
COc1cc(Cl)ccc1OCc1cc(C(=O)NCC(C)(C)N2CCOCC2)no1	inconclusive: 36.1%
CCOC(=O)CN=C1CC(C)(C)CC2=C1Sc1ncnc(N(C)C)c1N2	inactive: -3.91%
N#CC(c1ccc(Cl)cc1)c1ccc2c(C(F)(F)F)cc(C(F)(F)F)nc2n1 (configuration not stated)	inactive: -15.5%
Cc1cc(C)n(CCC(=O)N/N=C/c2c(O)ccc3ccccc23)n1	inconclusive: 35.2%
CCOc1ccc(S(=O)(=O)Nc2cc(Cl)ccc2O)cc1	inconclusive: 30.8%
CC1(C(=O)OCC(=O)Nc2ccc3ccccc3c2)CC1(Cl)Cl (configuration not stated)	inconclusive: 41.7%
COCC1CCN(Cc2nc(COc3ccccc3)no2)C1 (configuration not stated)	inactive: 4.73%
COC(C(=O)Nc1ccnn1C1CCN(Cc2ccc(C)o2)CC1)c1ccccc1 (configuration not stated)	inconclusive: 24.7%
COC(=O)c1cnc(NNS(=O)(=O)c2ccc(C(F)(F)F)cc2)nc1C(F)(F)F	inconclusive: 28.7%
COc1ccc(C2CC(=O)c3cnc(NC(=O)c4ccccc4)nc3C2)c(OC)c1 (configuration not stated)	inconclusive: 25.8%
O=C(Nc1cc(F)ccc1F)C1CCCN(c2ncnc3c2nc2n3CCCCC2)C1 (configuration not stated)	inconclusive: 23.5%
Cc1ccc(O)c(N=Nc2ccc(S(=O)(=O)N3CCCC3)cc2)c1	inconclusive: 30.2%
O=C(C[C@H]1C[C@H](C(=O)N2CCOCC2)[C@@]2(CCC3CCCC3)c3[nH]c4cc(-c5ccco5)ccc4c3CCN2C1=O)NCCCn1ccnc1	inconclusive: 34.3%
Cc1ccc(C(=O)N/C(=C\c2cn(S(=O)(=O)N(C)C)c3ccccc23)C(=O)NCCCN2CCOCC2)cc1	inconclusive: 38.6%
NC(=O)c1ccsc1NC(=O)COC(=O)c1ccc([N+](=O)[O-])o1	inactive: 8.14%
COc1ccc(N=Cc2nc(-c3ccccc3)oc2OC(=O)c2ccccc2)cc1	inconclusive: 19.9%
CCc1ncc(C)nc1CC	active: 55.3%
Cc1nnc2ccc(-c3ccc(NC(=O)Cc4cccs4)cc3)nn12	inactive: 12.9%
